# For some of these results: Most of the strong results are listed elsewhere, so they are rarer here than in the full data. The list shows a part of the results, in another mix than the full data.
# Key:
# [1] = target: T1, Inhibitor of nuclear factor kappa-B kinase subunit epsilon (Homo sapiens) (UniProt Q14164); details: at 1 µM;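 also: reported values are averaged percent inhibition figures against human IKKε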
# T1 sequence (whole entry): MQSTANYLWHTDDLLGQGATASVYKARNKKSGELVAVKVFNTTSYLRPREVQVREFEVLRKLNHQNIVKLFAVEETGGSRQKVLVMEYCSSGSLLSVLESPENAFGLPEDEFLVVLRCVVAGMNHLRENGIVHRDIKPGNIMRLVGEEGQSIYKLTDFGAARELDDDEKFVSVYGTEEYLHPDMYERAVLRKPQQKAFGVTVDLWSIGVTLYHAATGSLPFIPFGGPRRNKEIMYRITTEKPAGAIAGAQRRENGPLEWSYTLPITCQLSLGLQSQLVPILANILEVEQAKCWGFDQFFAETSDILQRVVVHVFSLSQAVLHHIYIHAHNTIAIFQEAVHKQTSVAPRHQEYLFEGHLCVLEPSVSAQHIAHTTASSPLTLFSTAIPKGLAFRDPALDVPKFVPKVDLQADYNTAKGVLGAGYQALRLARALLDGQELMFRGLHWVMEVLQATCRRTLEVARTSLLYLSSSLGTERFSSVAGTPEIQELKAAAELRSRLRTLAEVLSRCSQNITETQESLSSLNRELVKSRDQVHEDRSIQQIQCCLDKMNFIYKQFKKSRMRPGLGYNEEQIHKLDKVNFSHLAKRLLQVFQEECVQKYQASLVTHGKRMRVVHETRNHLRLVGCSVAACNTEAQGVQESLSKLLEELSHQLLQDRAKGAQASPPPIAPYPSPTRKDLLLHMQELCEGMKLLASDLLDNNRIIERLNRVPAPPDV
# [2] = target: T2, Serine/threonine-protein kinase Nek1 (Homo sapiens) (UniProt Q96PY6); details: at 0.1 µM
# T2 sequence (whole entry): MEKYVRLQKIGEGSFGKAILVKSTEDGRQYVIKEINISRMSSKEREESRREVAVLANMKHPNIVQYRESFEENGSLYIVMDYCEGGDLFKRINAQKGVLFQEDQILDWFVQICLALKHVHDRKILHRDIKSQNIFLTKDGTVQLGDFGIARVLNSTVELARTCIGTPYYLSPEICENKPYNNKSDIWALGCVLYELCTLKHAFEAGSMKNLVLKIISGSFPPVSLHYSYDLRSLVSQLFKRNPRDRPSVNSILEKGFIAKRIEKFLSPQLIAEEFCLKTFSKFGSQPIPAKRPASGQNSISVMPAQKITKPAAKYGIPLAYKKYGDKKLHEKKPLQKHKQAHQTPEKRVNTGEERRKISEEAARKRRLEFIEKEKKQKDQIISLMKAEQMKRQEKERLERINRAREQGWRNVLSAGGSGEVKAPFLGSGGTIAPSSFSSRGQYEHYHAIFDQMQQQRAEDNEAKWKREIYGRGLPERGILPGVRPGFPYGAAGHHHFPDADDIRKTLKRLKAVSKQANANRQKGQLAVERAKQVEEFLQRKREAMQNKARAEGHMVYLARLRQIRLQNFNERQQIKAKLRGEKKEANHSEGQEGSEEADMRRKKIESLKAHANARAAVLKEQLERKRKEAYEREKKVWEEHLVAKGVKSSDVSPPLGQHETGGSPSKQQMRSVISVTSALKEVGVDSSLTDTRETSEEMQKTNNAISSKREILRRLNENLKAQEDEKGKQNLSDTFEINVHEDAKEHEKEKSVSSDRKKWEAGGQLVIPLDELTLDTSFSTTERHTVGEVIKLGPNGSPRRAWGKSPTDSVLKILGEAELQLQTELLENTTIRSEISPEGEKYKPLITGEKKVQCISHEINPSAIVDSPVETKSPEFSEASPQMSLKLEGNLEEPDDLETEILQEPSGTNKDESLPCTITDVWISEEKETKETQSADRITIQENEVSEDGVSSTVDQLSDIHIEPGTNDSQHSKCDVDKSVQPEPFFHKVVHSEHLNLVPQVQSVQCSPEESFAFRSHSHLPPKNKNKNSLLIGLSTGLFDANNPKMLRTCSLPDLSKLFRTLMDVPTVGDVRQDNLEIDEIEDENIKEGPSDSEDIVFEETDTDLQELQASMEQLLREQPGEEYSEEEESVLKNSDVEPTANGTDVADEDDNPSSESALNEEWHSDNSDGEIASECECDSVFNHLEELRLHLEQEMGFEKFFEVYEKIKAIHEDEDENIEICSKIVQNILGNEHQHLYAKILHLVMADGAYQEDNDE
# [3] = target: T2, Serine/threonine-protein kinase Nek1 (Homo sapiens); details: at 1 µM
# [4] = target: T3, Serine/threonine-protein kinase Nek2 (Homo sapiens) (UniProt P51955); details: at 0.1 µM
# T3 sequence (whole entry): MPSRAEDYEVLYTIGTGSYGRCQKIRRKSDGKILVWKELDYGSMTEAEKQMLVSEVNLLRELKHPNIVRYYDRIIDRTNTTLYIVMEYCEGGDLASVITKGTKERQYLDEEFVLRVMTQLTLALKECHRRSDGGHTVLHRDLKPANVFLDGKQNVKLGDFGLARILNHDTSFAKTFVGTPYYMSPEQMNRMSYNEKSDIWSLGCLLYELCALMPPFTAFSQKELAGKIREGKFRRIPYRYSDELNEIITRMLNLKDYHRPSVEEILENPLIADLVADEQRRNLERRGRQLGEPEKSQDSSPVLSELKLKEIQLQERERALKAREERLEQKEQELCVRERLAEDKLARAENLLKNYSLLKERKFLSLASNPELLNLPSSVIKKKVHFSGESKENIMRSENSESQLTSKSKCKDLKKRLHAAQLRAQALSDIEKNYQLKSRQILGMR
# [5] = target: T3, Serine/threonine-protein kinase Nek2 (Homo sapiens); details: at 1 µM
# [6] = target: T4, Serine/threonine-protein kinase Nek6 (Homo sapiens) (UniProt Q9HC98); details: at 0.1 µM
# T4 sequence (whole entry): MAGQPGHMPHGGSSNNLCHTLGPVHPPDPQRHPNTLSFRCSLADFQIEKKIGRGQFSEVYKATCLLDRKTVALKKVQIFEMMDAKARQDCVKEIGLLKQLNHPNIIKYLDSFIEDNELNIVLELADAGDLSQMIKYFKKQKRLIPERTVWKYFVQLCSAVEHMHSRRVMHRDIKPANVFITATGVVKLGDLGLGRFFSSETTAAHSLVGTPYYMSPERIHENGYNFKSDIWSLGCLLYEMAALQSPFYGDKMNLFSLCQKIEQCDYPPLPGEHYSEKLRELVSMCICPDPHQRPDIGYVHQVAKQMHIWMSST
# [7] = target: T4, Serine/threonine-protein kinase Nek6 (Homo sapiens); details: at 1 µM
# [8] = target: Serine/threonine-protein kinase Nek7 (Homo sapiens) (UniProt Q8TDX7); details: at 0.1 µM
# Chain of UniProt Q8TDX7 (Q8TDX7 whole entry, looked up): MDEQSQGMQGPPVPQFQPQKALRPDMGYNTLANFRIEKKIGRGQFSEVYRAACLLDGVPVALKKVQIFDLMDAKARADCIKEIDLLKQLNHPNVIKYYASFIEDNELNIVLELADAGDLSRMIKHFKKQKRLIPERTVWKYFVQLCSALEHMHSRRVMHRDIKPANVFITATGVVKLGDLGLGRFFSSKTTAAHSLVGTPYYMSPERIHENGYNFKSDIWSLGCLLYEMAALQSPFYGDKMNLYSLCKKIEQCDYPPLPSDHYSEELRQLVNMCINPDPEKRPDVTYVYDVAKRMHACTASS
# [9] = target: Serine/threonine-protein kinase Nek7 (Homo sapiens) (UniProt Q8TDX7); details: at 1 µM
# [10] = target: T5, Serine/threonine-protein kinase Nek9 (Homo sapiens) (UniProt Q8TD19); details: at 0.1 µM
# T5 sequence (whole entry): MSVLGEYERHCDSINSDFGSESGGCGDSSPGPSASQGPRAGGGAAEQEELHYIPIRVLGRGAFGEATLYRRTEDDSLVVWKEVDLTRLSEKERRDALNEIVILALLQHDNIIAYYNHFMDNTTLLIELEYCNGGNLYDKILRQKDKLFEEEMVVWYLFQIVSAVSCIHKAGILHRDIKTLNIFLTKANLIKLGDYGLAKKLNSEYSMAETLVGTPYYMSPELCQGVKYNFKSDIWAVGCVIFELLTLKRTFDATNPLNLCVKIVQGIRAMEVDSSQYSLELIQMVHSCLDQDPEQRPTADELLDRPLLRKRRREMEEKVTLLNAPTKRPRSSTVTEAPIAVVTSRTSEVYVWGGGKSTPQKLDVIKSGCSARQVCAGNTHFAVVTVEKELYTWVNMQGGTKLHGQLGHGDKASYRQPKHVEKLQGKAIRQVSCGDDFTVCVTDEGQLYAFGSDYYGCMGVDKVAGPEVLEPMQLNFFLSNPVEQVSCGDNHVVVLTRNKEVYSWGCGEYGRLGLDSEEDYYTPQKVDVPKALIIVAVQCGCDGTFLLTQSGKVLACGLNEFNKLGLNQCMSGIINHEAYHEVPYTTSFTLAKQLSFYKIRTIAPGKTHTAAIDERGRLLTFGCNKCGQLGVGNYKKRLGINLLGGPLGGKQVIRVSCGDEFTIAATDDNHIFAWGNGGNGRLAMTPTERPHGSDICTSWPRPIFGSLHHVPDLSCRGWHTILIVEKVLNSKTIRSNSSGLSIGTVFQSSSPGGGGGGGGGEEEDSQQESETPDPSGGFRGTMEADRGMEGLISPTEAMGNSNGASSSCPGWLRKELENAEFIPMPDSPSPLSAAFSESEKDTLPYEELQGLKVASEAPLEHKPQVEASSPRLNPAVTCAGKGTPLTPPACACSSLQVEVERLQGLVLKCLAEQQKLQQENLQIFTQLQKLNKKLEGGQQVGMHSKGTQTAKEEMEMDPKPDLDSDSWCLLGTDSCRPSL
# [11] = target: T5, Serine/threonine-protein kinase Nek9 (Homo sapiens); details: at 1 µM
# [12] = target: Serine/threonine-protein kinase PLK1 (Homo sapiens) (UniProt P53350); details: at 0.1 µM
# Chain of UniProt P53350 (P53350 whole entry): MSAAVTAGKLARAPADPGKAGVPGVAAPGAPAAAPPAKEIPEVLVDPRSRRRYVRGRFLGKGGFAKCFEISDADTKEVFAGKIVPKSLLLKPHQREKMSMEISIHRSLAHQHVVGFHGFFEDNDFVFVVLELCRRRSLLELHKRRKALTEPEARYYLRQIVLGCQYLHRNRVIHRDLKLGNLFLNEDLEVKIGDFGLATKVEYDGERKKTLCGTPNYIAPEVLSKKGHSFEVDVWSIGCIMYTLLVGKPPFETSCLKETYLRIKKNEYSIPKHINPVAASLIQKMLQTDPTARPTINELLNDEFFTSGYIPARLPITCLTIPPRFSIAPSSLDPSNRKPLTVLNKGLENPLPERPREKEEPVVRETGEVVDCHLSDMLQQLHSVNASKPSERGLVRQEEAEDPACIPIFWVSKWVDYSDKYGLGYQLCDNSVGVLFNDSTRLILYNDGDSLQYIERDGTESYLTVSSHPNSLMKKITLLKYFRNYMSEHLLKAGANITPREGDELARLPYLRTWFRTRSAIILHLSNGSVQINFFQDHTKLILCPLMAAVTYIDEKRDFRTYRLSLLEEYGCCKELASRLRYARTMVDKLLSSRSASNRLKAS
# [13] = target: Serine/threonine-protein kinase PLK1 (Homo sapiens) (UniProt P53350); details: at 1 µM
# [14] = target: T6, Dual specificity protein kinase TTK (Homo sapiens) (UniProt P33981); details: at 0.1 µM
# T6 sequence (whole entry): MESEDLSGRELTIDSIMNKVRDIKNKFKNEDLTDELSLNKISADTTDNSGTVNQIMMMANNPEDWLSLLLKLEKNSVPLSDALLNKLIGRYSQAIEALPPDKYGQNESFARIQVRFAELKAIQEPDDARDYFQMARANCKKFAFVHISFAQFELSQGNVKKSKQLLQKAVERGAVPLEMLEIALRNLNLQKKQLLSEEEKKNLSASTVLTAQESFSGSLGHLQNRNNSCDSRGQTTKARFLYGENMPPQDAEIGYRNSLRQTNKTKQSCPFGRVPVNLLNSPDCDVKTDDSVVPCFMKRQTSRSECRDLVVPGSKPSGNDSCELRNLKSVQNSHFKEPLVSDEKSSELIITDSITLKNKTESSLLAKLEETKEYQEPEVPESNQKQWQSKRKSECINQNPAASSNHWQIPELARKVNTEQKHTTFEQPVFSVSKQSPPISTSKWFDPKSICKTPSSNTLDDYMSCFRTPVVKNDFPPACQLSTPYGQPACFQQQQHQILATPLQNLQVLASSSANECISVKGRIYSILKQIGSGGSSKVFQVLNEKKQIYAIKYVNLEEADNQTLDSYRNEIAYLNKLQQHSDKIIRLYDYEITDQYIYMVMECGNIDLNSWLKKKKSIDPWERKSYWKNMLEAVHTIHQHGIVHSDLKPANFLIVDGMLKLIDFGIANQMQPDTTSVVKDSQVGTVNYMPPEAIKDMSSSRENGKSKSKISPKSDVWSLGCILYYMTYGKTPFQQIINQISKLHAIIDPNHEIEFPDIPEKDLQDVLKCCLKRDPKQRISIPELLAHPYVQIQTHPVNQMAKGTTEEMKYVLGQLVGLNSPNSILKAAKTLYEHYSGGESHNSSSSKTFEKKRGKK
# [15] = tested on: T7, Receptor-type tyrosine-protein kinase FLT3 (Homo sapiens), P36888 [D835Y]; details: at 1 µM
# T7 sequence (whole entry): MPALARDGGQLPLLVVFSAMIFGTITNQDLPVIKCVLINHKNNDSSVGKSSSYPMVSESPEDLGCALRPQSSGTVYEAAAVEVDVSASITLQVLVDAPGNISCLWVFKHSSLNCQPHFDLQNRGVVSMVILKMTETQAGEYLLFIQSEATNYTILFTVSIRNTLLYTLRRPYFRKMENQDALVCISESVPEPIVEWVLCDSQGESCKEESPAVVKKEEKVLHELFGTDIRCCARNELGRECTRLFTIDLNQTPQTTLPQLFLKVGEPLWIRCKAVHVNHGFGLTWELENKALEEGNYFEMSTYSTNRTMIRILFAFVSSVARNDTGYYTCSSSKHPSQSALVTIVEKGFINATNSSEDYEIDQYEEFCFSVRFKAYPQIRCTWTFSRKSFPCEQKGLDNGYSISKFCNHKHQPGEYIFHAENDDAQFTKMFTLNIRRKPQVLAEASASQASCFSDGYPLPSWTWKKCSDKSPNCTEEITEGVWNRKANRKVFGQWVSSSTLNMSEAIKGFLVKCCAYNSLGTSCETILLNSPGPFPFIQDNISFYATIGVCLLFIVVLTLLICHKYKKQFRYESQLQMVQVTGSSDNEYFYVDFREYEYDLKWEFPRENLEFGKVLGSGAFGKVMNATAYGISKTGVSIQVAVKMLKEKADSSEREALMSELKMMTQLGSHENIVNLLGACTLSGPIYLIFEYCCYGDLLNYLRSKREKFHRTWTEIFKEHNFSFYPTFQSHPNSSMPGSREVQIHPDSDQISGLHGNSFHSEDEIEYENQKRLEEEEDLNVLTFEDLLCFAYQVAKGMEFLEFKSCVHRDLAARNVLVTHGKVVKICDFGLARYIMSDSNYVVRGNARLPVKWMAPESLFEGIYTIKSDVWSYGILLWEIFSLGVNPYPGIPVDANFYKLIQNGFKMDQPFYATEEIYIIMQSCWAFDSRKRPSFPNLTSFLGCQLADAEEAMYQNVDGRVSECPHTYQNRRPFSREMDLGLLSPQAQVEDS
# [16] = target: Vascular endothelial growth factor receptor 3 (Homo sapiens) (UniProt P35916); details: at 0.1 µM
# Chain of UniProt P35916 (P35916 whole entry): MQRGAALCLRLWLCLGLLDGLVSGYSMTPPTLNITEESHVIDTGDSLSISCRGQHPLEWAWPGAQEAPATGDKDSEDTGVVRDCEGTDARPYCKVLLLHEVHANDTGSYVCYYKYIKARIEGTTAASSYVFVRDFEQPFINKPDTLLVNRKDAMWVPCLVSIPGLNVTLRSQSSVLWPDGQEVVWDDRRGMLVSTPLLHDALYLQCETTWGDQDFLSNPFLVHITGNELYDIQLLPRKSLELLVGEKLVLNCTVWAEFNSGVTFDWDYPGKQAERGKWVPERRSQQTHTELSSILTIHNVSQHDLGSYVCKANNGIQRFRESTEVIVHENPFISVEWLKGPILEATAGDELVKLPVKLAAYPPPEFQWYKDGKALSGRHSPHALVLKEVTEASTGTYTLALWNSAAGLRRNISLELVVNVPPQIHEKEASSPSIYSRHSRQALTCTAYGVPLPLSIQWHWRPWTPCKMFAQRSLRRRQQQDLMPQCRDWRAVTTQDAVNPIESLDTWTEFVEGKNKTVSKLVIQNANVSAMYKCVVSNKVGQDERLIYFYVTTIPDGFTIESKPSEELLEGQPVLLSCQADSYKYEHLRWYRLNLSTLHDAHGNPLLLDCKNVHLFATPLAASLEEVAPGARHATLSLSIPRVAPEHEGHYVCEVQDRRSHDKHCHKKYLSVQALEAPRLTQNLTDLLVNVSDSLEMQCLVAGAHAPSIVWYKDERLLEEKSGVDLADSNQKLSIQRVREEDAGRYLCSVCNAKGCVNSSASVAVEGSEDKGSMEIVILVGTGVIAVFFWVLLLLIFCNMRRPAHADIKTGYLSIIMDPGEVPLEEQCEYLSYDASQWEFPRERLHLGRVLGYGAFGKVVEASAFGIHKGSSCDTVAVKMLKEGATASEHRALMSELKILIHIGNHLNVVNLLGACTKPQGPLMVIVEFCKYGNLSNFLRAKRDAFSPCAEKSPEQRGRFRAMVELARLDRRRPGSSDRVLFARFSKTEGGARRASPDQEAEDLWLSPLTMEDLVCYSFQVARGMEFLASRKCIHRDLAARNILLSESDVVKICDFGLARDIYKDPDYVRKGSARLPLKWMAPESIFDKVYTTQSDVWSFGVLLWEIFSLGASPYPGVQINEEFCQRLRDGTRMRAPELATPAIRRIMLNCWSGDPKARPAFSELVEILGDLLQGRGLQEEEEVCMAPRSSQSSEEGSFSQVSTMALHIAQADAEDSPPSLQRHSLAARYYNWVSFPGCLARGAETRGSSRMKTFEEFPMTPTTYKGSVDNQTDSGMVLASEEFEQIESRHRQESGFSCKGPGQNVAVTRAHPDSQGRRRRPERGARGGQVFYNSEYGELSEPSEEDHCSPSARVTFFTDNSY
# [17] = target: Macrophage colony-stimulating factor 1 receptor (Homo sapiens) (UniProt P07333); details: at 0.1 µM
# Chain of UniProt P07333 (P07333 whole entry): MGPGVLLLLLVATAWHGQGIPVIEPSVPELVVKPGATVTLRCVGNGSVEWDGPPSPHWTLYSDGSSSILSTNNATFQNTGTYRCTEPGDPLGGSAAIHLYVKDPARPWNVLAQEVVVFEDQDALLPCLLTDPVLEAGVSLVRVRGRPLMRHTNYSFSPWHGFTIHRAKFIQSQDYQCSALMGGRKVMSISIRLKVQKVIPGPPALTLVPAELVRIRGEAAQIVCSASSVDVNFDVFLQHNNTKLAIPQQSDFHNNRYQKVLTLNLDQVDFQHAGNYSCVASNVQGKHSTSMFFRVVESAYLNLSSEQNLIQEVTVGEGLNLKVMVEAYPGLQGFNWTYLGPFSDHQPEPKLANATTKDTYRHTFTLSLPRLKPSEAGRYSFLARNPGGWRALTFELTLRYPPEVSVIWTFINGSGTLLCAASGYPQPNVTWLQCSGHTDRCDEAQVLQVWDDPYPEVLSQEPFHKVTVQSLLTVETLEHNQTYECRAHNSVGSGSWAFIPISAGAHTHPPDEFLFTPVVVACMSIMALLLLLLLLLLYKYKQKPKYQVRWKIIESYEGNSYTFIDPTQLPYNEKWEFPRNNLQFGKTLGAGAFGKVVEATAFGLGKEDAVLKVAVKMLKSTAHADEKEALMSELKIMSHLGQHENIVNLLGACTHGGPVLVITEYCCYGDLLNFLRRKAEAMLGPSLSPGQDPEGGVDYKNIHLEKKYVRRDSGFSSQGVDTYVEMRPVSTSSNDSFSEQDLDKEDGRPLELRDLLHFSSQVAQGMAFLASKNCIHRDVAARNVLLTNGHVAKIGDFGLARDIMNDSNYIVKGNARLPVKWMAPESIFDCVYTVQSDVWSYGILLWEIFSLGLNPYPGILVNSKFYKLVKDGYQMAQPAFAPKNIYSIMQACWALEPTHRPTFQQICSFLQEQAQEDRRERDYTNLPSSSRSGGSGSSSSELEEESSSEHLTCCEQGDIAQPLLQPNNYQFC
# [18] = target: Macrophage colony-stimulating factor 1 receptor (Homo sapiens) (UniProt P07333); details: at 1 µM
# [19] = target: Tyrosine-protein kinase Fyn (Homo sapiens) (UniProt P06241); details: at 0.1 µM
# Chain of UniProt P06241 (P06241 whole entry, looked up): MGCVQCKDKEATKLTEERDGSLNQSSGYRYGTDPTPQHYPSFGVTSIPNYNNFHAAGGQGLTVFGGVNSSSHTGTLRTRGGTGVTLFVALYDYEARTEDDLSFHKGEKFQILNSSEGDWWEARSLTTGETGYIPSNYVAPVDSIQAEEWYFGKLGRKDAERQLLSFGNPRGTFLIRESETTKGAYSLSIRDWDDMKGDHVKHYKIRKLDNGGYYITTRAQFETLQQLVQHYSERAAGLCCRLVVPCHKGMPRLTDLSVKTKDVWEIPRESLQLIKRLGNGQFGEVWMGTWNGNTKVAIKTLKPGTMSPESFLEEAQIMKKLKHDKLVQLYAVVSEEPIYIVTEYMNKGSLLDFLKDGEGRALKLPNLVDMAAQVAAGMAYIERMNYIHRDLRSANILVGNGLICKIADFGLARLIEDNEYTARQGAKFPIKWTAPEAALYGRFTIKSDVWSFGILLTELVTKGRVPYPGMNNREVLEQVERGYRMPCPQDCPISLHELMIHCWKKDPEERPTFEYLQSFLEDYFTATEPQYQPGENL
smiles,measurement,setting,value
Fc1ccc(Oc2nccc(-c3c(-c4ccc(F)cc4)ncn3C3CCNCC3)n2)cc1,inhibition,[1],6.31%
same,inhibition,[2],2.31%
same,inhibition,[3],1.49%
same,inhibition,[4],6.1%
same,inhibition,[5],4.39%
same,inhibition,[6],2.41%
same,inhibition,[7],4.04%
same,inhibition,[8],4.05%
same,inhibition,[9],9.66%
same,inhibition,[10],5.94%
same,inhibition,[11],4.98%
same,inhibition,[12],4.29%
same,inhibition,[13],7.22%
same,inhibition,[14],6.82%
same,inhibition,[15],1.57%
same,inhibition,[16],-4.49%
same,inhibition,[17],4.05%
same,inhibition,[18],8.52%
same,inhibition,[19],-1.7%

# — ChEMBL document CHEMBL1961873, “Compounds: GSK PKIS; Assays: Nanosyn kinase panel” (2012)
